Data reported in PubChem BioAssay AID463173 (ICCB-Longwood Screening Facility, Harvard Medical School, 2010).
Out of some 52,000 compounds screened, about 1,700 (3.3%) were called active. Rule as the data show it: active = survival mostly below about 52% (no sharp cut-off); inactive = mostly above about 56%. The list shows a part of the results.

What follows are compounds tested on Wild type (assay: S. aureus survival, RN4220 and DeltatarO strains – OD600, teichoic acid synthesis inhibitors, primary screen (AID 463173)). Conditions: S. aureus RN4220 wild type/DeltatarO growth, OD600, 18 h, stronger effect = lower value, screened at 18.75 µg/mL (by protocol).

SMILES | survival
CC1(C)CC(=O)C2=C(C1)OC(N)=C(C#N)C2C#Cc1ccccc1 (stereo not given) | inactive: 101%
CCC(=O)N1c2ccccc2CC1C(=O)NCCN1CCN(c2cccc(C(F)(F)F)c2)CC1 (stereo not given) | inactive: 119%
Cc1ccc(C)c(N2CCN(Cc3nnc(-c4ccc5c(c4)OCO5)o3)CC2)c1 | inactive: 68%
Cn1c(=O)oc2cc(S(=O)(=O)NC(Cc3ccccc3)C(=O)NCc3ccc(F)cc3)ccc21 (stereo not given) | inactive: 91%
COc1ccccc1OC(C)C(=O)Nc1c(C(=O)c2ccc(Cl)cc2)oc2ccccc12 (stereo not given) | inactive: 87%
CCn1c(C)c(C)c2cc(C(=O)NCCCN3CCCCC3)ccc21 | inactive: 138%
Cc1ccc(N(CC(=O)NCc2ccc(F)cc2)S(=O)(=O)c2c(C)nn(C)c2C)cc1 | inactive: 87%
COc1cccc(CNC(=O)c2ccc3c(c2)nnn3C2CCCC2)c1 | inactive: 134%
COc1ccc(-n2nc(C(=O)Nc3ccc(C)cn3)c3c4ccccc4n(C)c3c2=O)cc1 | inactive: 74%
Cc1ccc(-n2cc(-c3ccccc3)nc2S(=O)(=O)CC(=O)Nc2ccc(F)cc2)cc1 | inactive: 80%
CCCCSCCCNC(=O)c1cn(C)c2ccc(S(=O)(=O)N3CCCCC3)cc2c1=O | inactive: 84%
CCN(CC)C(=O)Cn1c(=O)n(-c2ccc(OC)cc2OC)c(=O)c2c(C)c(C(=O)N(CC)CC)sc21 | inactive: 113%
CCc1c(C)nc2cc(-c3cc(OC)cc(OC)c3)nn2c1NCCCN(CC)CC | inactive: 107%
COc1ccccc1C(=O)Nc1nnc(SCc2cc(=O)c3cc(Cl)ccc3[nH]2)s1 | inactive: 83%
COc1ccc(OC)c(NC(=O)Cn2ccc3ccccc3c2=O)c1 | inactive: 68%
COc1ccc(NC(=O)c2c(-c3ccc(C)cc3)nnc3ccccc23)cc1Cl | inactive: 74%
O=C(CNC(=O)c1ccccc1F)OCc1cc(=O)n2ccsc2n1 | inactive: 102%
Cc1ccc(C)c(N2CCN(C(=O)C3CCCN(S(=O)(=O)c4cccc5nsnc45)C3)CC2)c1 (stereo not given) | inactive: 73%
O=C(NCc1ccco1)C(Sc1ccccc1)c1ccccc1 (stereo not given) | inactive: 100%
O=S(=O)(c1ccccc1)c1nc(-c2ccc(Cl)cc2Cl)oc1N1CCCCC1 | inactive: 57%
COc1ccc(C)cc1NC(=O)Cn1c(=O)cc(C)c2c(C)nn(C)c21 | inactive: 68%
Cc1ccc(CN2CCN(C3CCN(C(=O)c4ccccc4)CC3)C(=O)C2=O)cc1 | inactive: 78%
Cc1nc(-c2ccc(Cl)cc2)sc1CCNC(=O)Cc1ccc(F)cc1 | inactive: 120%

SMILES | survival
Cc1ccc(C(=O)Nc2cccc(O)c2)cc1S(=O)(=O)N1CCCCCC1 | inactive: 92%
O=C(NCC1CCN(S(=O)(=O)c2ccc(Cl)cc2)CC1)C1CCCO1 (stereo not given) | inactive: 87%
CCN(CC)CCCNC(=O)c1cn(CC)c2ccc(S(=O)(=O)N3CCc4ccccc4C3)cc2c1=O | inactive: 118%
COc1ccc(-c2nc(SCC(=O)N3CCN(c4ccc(F)cc4)CC3)n[nH]2)cc1 | inactive: 85%
CCCCOc1ccc(CNC(=O)Cc2ccc(NC(=O)N3CCCCc4ccccc43)cc2)cc1 | inactive: 75%
COc1ccc(CCNC(=O)c2ccc3c(c2)N(Cc2cc(C)ccc2C)C(=O)c2ccccc2S3=O)cc1OC (stereo not given) | inactive: 93%
O=C(NC1CC1)C1CCN(C(=O)c2ccc(Cl)cc2)CC1 | inactive: 110%
CC(C)(C)OC(=O)N1CCC(c2c(C(=O)N3CCN(c4ccccc4)CC3)cnn2-c2ccccc2)CC1 | inactive: 71%
CCOC(=O)c1c(Nc2ccc(F)cc2)nnc(-c2ccccc2)c1-c1ccccc1 | active: 1%
O=C(Oc1ccccc1)c1ccc(F)cc1 | inactive: 102%
CCn1c(=O)n(-c2ccc(F)cc2)c(=O)c2sc3ccccc3c21 | inactive: 89%
CCCN(C(=O)c1cc2ccc3cccnc3c2[nH]1)c1ccc(F)cc1 | inactive: 80%
O=C(c1ccccc1Cl)N(Cc1ccco1)c1ccccn1 | inactive: 80%
CCSc1ccccc1C(=O)NCCCn1ccnc1 | inactive: 101%
Cc1cc(Br)ccc1NC(=O)Cn1cnc2sc(C)c(S(=O)(=O)N3CCN(C)CC3)c2c1=O | inactive: 143%
COC(=O)c1sc2cccc(F)c2c1S(=O)(=O)Nc1ccc(N(C)C)cc1 | inactive: 53%
Nc1c(NCCN2CCOCC2)c2ccccc2oc1=O | inactive: 103%
CC(=O)N1CCC2(CC1)OC(=O)C(C)=C2C(=O)Nc1cc(C)ccc1C | inactive: 84%
CCOC(=O)c1cc(-c2ccc(C)cc2)n(CC(=O)Nc2ccccc2F)c1C | inactive: 102%
CC(=O)Nc1ccc(-n2c(CCC(=O)O)ccc2-c2ccc(Br)cc2)cc1 | inactive: 80%
COc1ccc(Cl)cc1NC(=O)Cn1c(=O)n(Cc2cccs2)c(=O)c2cccnc21 | inactive: 68%
Cc1nc2cccnc2n1C1CCN(S(=O)(=O)N(C)C)CC1 | inactive: 65%
COc1ccc(CNC(=O)Cc2c(C)c3c(cc(C)c4c(C)coc43)oc2=O)cc1OC | inactive: 87%

SMILES | survival
Cc1ccc(NC2=NCC(=O)N2C2CCCC2)cc1C | inactive: 104%
Cc1ccc2nc(-c3cc4ccccc4oc3=O)[nH]c2c1 | inactive: 104%
COC(=O)c1ccccc1NC(=O)c1ccc(COc2cc(C)cc(C)c2)o1 | inactive: 59%
COc1ccc(CCCc2nnc(SCC(=O)Nc3cc(C)ccc3C)o2)cc1 | inactive: 68%
O=C(NCc1ccccn1)C1CCCCC1 | inactive: 99%
COc1ccc(Br)c2c1-c1nc(NC(=O)c3ccccc3F)sc1C2 | inactive: 95%
Cn1c(O)c(C=NCC2(C)CC(O)CC(C)(C)C2)c(=O)n(C)c1=S (stereo not given) | inactive: 114%
Cc1nc2ccc(S(=O)(=O)N(CC(=O)Nc3cccc(Cl)c3)Cc3ccccc3)cc2s1 | inactive: 82%
Cc1cccc(C(=O)NC(c2n[nH]c(=S)n2C)C(C)C)c1 (stereo not given) | inactive: 122%
Cc1nn(CC(=O)NCc2ccc(N(C)C)cc2)c(=O)c2c(C)n(-c3ccc(Cl)cc3)nc12 | inactive: 95%
CCOc1ccc(NC(=O)CCn2c(=O)c3cccn3c3cccnc32)cc1 | inactive: 90%
CCOc1ccc(Cn2nnc(C(=O)Nc3cccc(SC)c3)c2N)cc1 | inactive: 73%
C=CCn1c(CSc2nc3ccccc3s2)nnc1SCC(=O)NCCN1CCOCC1 | inactive: 96%
Cc1nn(-c2ccc(F)cc2)c(-n2cccc2)c1C(=O)N1CCN(c2ccccc2)CC1 | inactive: 68%
Cc1cc2nn(-c3ccccc3)nc2cc1NC(=O)COc1ccc(Cl)cc1 | inactive: 65%
CC1CCC(NC(=O)CCc2cn(Cc3ccccc3Cl)c3ccccc23)CC1 (stereo not given) | inactive: 84%
Cc1cc(NC(=O)c2cc(-c3cccc(Cl)c3)on2)nn1Cc1ccc(Cl)cc1 | inactive: 82%
COC(=O)C1CSCN1 (stereo not given) | inactive: 100%
CCCN(CCC)C(=O)Cn1c(=O)n(-c2ccc(C)c(C)c2)c(=O)c2c3c(sc21)CCCCC3 | inactive: 80%
Cc1ccc(CN2C(=O)N(c3ccc(F)cc3)C(=O)C2CC(=O)Nc2ccc(Cl)cc2)cc1 (stereo not given) | inactive: 111%
Cc1ncc(CO)c2c1Oc1nc(-c3ccc(F)cc3)nc(SCC(=O)N3CCCCC3)c1C2 | inactive: 82%
Cc1ccc(C)c(Cn2c3ccccc3c3cnn(CC(=O)NC4CCC(C)CC4)c(=O)c32)c1 (stereo not given) | inactive: 80%
O=C(NCCc1ccccc1)C1CCN(c2ncnc3c2nc2n3CCCCC2)CC1 | active: -4%

SMILES | survival
COc1ccc(NC(=O)CSC2=Nc3ccccc3C3=NC(CCC(=O)NCc4cccs4)C(=O)N23)cc1 (stereo not given) | inactive: 78%
Cc1ccc(NC(=O)CSc2nnc(-c3cc4occc4n3C)n2-c2ccccc2C)c(Cl)c1 | inactive: 99%
COC(=O)CN1C(=O)CSc2ccc(S(=O)(=O)Nc3cccc(Br)c3)cc21 | inactive: 32%
CCOc1ccc(NC(=O)CSc2nc3c(oc4ccccc43)c(=O)n2-c2cc(C)cc(C)c2)cc1 | inactive: 84%
CC1=C(C(=O)NCc2cccc(Br)c2)C2(CCCCC2)OC1=O | inactive: 82%
CCCCOC(=O)/C(C#N)=C/c1ccc(-c2cccc(C(F)(F)F)c2)o1 | inactive: 53%
CCOc1ccc(-c2nonc2NC(=O)c2ccco2)cc1 | inactive: 92%
Cc1ccccc1CNC(=O)C1CCN(S(=O)(=O)Cc2ccccc2)CC1 | inactive: 83%
COc1cc(/C=C/c2nc(C#N)c(N3CCCCC3)o2)cc(OC)c1OC | inactive: 113%
CC1(C)CC(=O)C/C(=N\NC(=O)CCc2ccccc2)C1 | inactive: 122%
Cc1ccc(C2c3[nH]c4ccccc4c3CCN2C(=O)c2ccccc2Br)cc1 (stereo not given) | inactive: 68%
Cc1ccc(C(=O)Nc2c(-c3ccccc3)nc3ccccn23)cc1 | inactive: 62%
Cc1nnc(N2CCC(C(=O)Nc3ccc(F)cc3)CC2)c2nn(-c3ccc(Cl)cc3)c(C)c12 | inactive: 71%
CCOC(=O)c1c(NC(C)=O)sc2c(NC(C)=O)cccc12 | inactive: 100%
CCC(C(=O)OCc1cc(=O)n2nc(C)sc2n1)c1ccccc1 (stereo not given) | inactive: 125%
Cc1cccc(-c2noc(CN(C3CCCCC3)S(=O)(=O)c3ccc(F)cc3)n2)c1 | inactive: 82%
O=S(=O)(c1ccccc1)N1CCC(n2cnc3ccccc32)CC1 | inactive: 128%
Cc1ccc(-c2nc(=O)[nH]c3ccccc23)cc1 | inactive: 108%
COc1ccc2c(c1)-c1nc(NC(=O)c3ccc(OC)c(Br)c3)sc1CC2 | inactive: 82%
C(=N\N(Cc1ccccc1)Cc1ccccc1)/c1ccco1 | inactive: 101%
COc1ccc(OC)c(NC(=O)c2c(NCc3sccc3C)sc3c2CCCCC3)c1 | inactive: 74%
